Data from PubChem BioAssay AID493208 (National Center for Advancing Translational Sciences (NCATS), 2011).
Out of some 44,000 compounds screened, about 340 (0.77%) were called active. Another 5% or so got no clear call; they are omitted. The call rests on the fitted dose curve; in most records, active means well fitted inhibition curve with a large enough effect; inconclusive means small, poorly fitted or top-dose-only effect; inactive means flat fitted curve, though single readings scatter. Some of the results follow.

Assay: Acumen qHTS Assay for Inhibitors of the mTORC1 Signaling Pathway in MEF (Tsc2-/-, p53-/-) Cells: Sytravon;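 further: plate controls were DMSO for no effect and rapamycin for full effect; nearly all actives have a fitted effect of over 50% in size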
Details: phospho-rpS6 immunofluorescence/PI, 24 h; series mostly up to 38.3 µM; activity change, negative = inhibition: at the top concentration
In short: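 Readout is phospho-S6 Alexa 488 signal normalized to PI per well, reported as % active cells with thresholds set from rapamycin (7.5 nM) and DMSO controls. Cells: Tsc2-/-, p53-/- MEFs, 24 hrs compound at 37 C; PI cell number serves as viability.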

Activity change, negative = inhibition, inactive:
CC(Oc1ccccc1)C(=O)OCc1cc(=O)n2nc(C(C)C)sc2n1 (configuration not stated) -8.35%, COc1ccccc1CCNC(=O)C(=O)NCC(c1cccs1)S(=O)(=O)c1ccc(F)cc1 (configuration not stated) -0.78%, CCc1ccc(S(=O)(=O)c2nnn3c2nc(NCc2cccc(OC)c2)c2cc(Cl)ccc23)cc1 1.26%, O=C(Nc1cccc(-c2nc3ccccc3[nH]2)c1)c1ccccc1F 3.53%, Cc1ccsc1CN(C(=O)c1ccc(Br)cc1)C1CCS(=O)(=O)C1 (configuration not stated) 3.24%, COc1ccccc1CNC(=O)c1ccc2c(c1)nnn2C1CCCC1 4.02%, Cc1ccc(NC(=O)N2CCN3CCCCC3C2)cc1F (configuration not stated) 2.36%, COc1ccccc1NC(=O)Cn1cc(C(=O)c2ccncc2)c(=O)c2cc(C)ccc21 0%, COc1ccc(Cl)cc1NC(=O)C1CCN(S(=O)(=O)c2ccc3c(c2)CCCN3C(=O)C2CCC2)CC1 -2.34%, Cc1cc(=O)[nH]c2nnc(SCC(=O)Nc3ccc(F)cc3F)n12 1.97%, COc1ccc(NC(=O)c2cc(S(=O)(=O)N3CCCCC3)cn2C)cc1Cl -0.646%, O=C(Nc1ccc(S(=O)(=O)N2CCCCC2c2cccnc2)cc1)c1ccc(F)cc1 (configuration not stated) -2.69%, CCc1nnc2c3ccccc3nc(Nc3ccc(F)c(Cl)c3)n12 -6.21%, CCCC(CCC)C(=O)Nc1nnc2n1CCS2 -1.86%, CN(C)c1ccc(-c2noc(C3CC(=O)N(c4ccc5c(c4)OCCO5)C3)n2)cc1 (configuration not stated) -12.6%, Cc1cccc(N(C)C(=O)c2cc(S(=O)(=O)N3CCCCC3)c[nH]2)c1 0.955%, O=C(Nc1ccc(Cl)cc1)c1cc2c(Cl)nc3ccccc3c2s1 1.07%, COC(=O)CSc1nc2sc3c(c2c(=O)n1Cc1ccccc1)CCC(C(C)(C)C)C3 (configuration not stated) -4.42%, CCc1ccc(CNC(=O)c2nn(-c3ccc(OC)c(Cl)c3)c(=O)c3c2c2ccccc2n3C)cc1 -12.1%, CCN(Cc1ccccc1)C(=O)CN1C(=O)CSc2ccc(S(=O)(=O)N(CC)CC)cc21 -13.4%, COc1ccc(-c2nn(CC(=O)NCc3ccccc3)c3c2cnc2ccc(F)cc23)cc1 -10%, CCOc1ccccc1NC(=O)CN1C(=O)COc2ccc(S(=O)(=O)Nc3ccccc3)cc21 -4.87%, Cc1ccc(-c2nc3nc(C)cc(N4CCN(c5cccc(C)c5)C(C)C4)n3n2)cc1 (configuration not stated) 3.21%, O=C(Cn1c(=O)nc(-c2ccccc2F)c2cc(Cl)ccc21)Nc1ccccc1C(F)(F)F 11%, Cc1ccc(NC(=O)C2CCCN(S(=O)(=O)c3ccc4[nH]c(=O)ccc4c3)C2)cc1C (configuration not stated) -6.68%, COc1cc2oc(=O)c(CC(=O)NCCc3ccccc3F)c(C)c2cc1OC -1.81%, CCCCN(C)CCCNC(=O)CN1C(=O)CSc2ccc(S(=O)(=O)N3CCOCC3)cc21 12.2%
